From publication PMC4336329 (PLoS ONE, 2015)
The campaign covered roughly 310,000 compounds. About 2,200 (0.71%) showed an effect of 50% or more. The effect is printed as a negative number. Some of the results follow.

Target: human ether-à-go-go-related gene (hERG) potassium channel (human, UniProt Q12809)
Experiment: primary screen, population patch clamp on CHO cells stably expressing hERG

Sequence of human ether-à-go-go-related gene (hERG) potassium channel (Q12809 whole entry, looked up): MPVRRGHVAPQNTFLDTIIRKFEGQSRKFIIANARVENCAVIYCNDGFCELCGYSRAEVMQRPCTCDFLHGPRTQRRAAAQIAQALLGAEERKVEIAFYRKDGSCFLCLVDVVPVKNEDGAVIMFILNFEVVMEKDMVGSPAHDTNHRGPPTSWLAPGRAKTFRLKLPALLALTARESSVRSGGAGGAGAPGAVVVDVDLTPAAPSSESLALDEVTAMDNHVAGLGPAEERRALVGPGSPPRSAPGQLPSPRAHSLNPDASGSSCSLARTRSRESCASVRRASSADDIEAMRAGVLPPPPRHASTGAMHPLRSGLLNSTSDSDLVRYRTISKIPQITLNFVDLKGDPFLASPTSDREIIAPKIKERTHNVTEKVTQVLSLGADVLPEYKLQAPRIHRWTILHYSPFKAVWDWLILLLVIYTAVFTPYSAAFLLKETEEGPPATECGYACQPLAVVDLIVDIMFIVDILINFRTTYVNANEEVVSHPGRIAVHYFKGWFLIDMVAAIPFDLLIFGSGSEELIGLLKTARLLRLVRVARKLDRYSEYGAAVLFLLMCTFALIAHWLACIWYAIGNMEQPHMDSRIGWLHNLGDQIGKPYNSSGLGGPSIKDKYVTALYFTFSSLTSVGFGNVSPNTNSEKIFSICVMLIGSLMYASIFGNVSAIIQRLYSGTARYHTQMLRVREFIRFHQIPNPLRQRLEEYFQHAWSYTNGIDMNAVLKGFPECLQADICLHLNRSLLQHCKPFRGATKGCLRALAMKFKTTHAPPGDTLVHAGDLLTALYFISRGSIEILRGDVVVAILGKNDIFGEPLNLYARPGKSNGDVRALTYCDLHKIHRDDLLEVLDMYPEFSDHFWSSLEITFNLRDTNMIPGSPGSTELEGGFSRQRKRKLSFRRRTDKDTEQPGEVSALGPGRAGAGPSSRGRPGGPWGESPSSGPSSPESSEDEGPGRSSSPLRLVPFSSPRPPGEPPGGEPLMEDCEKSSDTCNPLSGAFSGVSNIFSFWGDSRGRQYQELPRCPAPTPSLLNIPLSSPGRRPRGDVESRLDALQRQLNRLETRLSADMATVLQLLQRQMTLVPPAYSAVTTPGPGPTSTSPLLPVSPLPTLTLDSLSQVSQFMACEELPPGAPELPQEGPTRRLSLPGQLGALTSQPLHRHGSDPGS

| SMILES | hERG current change (%, negative = inhibition) at 1uM [%] |
| --- | --- |
| CCc1ccc(N(C(=O)c2csnn2)C(C(=O)NCc2ccccc2)c2ccco2)cc1 (stereo not drawn) | 6.67 |
| COc1ccc(CN2CCNC(=O)C2CC(=O)NC2CC(C)(C)CC(C)(C)C2)cc1OC (stereo not drawn) | -0.179 |
| CC(NC(=O)c1cc2ccccc2oc1=O)c1ccc(O)cc1 (stereo not drawn) | 8.69 |
| Cc1ccc(CC(=O)N(C)CC(=O)N(CC(C)C)c2c(N)n(CC(C)C)c(=O)[nH]c2=O)cc1C | 5.19 |
| Cc1onc(-c2c(F)cccc2Cl)c1C(=O)NC(=S)NC1CCSC1=O (stereo not drawn) | 9.24 |
| O=C(NCCCN1CCCCC1)C1CCN(S(=O)(=O)N2CCC3(CC2)OCCO3)CC1 | 12.5 |
| O=C(c1ccc(C(F)(F)F)cc1)n1ccc(-c2cccs2)n1 | 16.1 |
| COc1cc(C(=O)NNC2=CC(=O)CC(C)(C)C2)cc(OC)c1OC | 6.45 |
| CCCCN(CC)CCNC(=O)c1cc2c(=O)[nH]c3ccccc3c2n1C | 11.5 |
| Cc1ccccc1C(=O)Nc1c(C(=O)N2CCCC2)cnn1-c1ccccc1 | 3.32 |
| Cn1nc(-c2ccccc2)c(CN2CCN(c3ncccn3)CC2)c1Cl | 10.8 |
| C/C(=N\NC(=O)c1ccccc1)c1c(O)n(C2CCCCC2)c(=O)[nH]c1=O | 15.8 |
| CCOCC(=O)N1CCN(c2ccc([N+](=O)[O-])cc2)CC1 | -48.4 |
| CCN1C(=O)C2(C(C#N)=C(N)Oc3c2c(C)nn3-c2ccccc2)c2ccccc21 (stereo not drawn) | 2.45 |
| COc1ccc(CN2CCSc3sccc3C2=O)cc1 | 3.85 |
| COC(=O)c1ccc(NC(=O)CCOc2ccccc2)cc1 | 7.08 |
| COCCCNC(=O)CN1C(=O)COc2ccc(S(=O)(=O)N3CC(C)CC(C)C3)cc21 (stereo not drawn) | 7.83 |
| Cc1ccccc1OCC(=O)OCC(=O)c1ccc(OC(=O)c2ccccc2)cc1 | -11.4 |
| CCCOc1ccc(C(=O)Nc2ccc(S(=O)(=O)NC3=NCCCCC3)cc2)cc1 | 15.5 |
| COc1ccc(N(C(=O)CNC(=O)c2cccs2)C(C(=O)NCC2CCCO2)c2ccccc2)cc1 (stereo not drawn) | 19 |
| COC(=O)c1nn(-c2c(C)n(C)n(-c3ccccc3)c2=O)cc1O | 6.83 |
| COc1cc(NC(=O)C2CCC(CNc3c(N4CCCCC4)c(=O)c3=O)CC2)cc(OC)c1 (stereo not drawn) | 15.1 |

| SMILES | hERG current change (%, negative = inhibition) at 1uM [%] |
| --- | --- |
| COc1ccc(CCNC(=O)CCn2c(=O)oc3ccccc32)cc1 | 0.676 |
| COCCNC(=O)C(c1cccnc1)N(Cc1ccc(C)cc1)C(=O)Cn1nnc2ccccc21 (stereo not drawn) | -0.938 |
| COc1ccc(-c2csc(N(CCc3ccc(OC)c(OC)c3)C(=O)COc3ccccc3)n2)cc1 | 23.4 |
| CN1CCN(C(=O)c2cc(Cl)cc(Cl)c2)CC1 | 8.2 |
| COc1ccc(N(C(=O)c2ccco2)C(C(=O)NC2CCCC2)c2ccncc2)cc1OC (stereo not drawn) | 13.2 |
| Cc1ccc(/C=C\c2nccc3c2[nH]c2ccccc23)cc1 | 3.86 |
| COC(=O)C(C)(C(=O)OC)c1ccc(C(F)(F)F)cc1[N+](=O)[O-] | 14.2 |
| CCOc1ccc(CCNC(=O)CCC(=O)N2CCOc3ccc(C)cc32)cc1OCC | 5.67 |
| N#Cc1ccc(/C=N/NC(=O)CCc2ccc(S(=O)(=O)N3CCOCC3)cc2)cc1 | -5.11 |
| COCCNC(=O)CSc1nc(-c2ccccc2)cs1 | 1.28 |
| COc1cccc(C2NC(=O)NC(C)=C2C(=O)OCC2CCCO2)c1 (stereo not drawn) | 11.8 |
| CC1CCC(=NNC(=O)c2ccccc2-n2cccc2)CC1 (stereo not drawn) | 6.73 |
| COc1ccc(OC)c(S(=O)(=O)NCC2CCCO2)c1 (stereo not drawn) | 13 |
| COC(=O)Cc1c(O)ccn(Cc2ccc3c(c2)OCO3)c1=O | 16.9 |
| CC(C)CC(=O)Nc1cc(C(F)(F)F)ccc1N1CCOCC1 | 11 |
| COc1cccc(SCc2noc(C(=O)NC(C)C)c2C(=O)O)c1 | 6.41 |
| Cc1ccc(C)c(N2CC(=O)N(c3cc(C)ccc3C)CC2=O)c1 | 15.9 |
| Cc1ccccc1C(=O)NCCCNC(=O)c1ccccc1C | 8.34 |
| NC(=O)CSc1nnc(CNc2cccc(Cl)c2)n1CCc1ccccc1 | 3.32 |
| Cc1cc(C)cc(N(CC(=O)N2CCN(c3ccccc3)CC2)S(=O)(=O)c2c(C)noc2C)c1 | -9.61 |
| CCOC(=O)N1CCN(S(=O)(=O)c2ccc(OC)c(C(=O)N3CCCCC3)c2)CC1 | 12.8 |
| CC(C)c1ccccc1NC(=O)CCc1nc2ccccc2s1 | -9.96 |

| SMILES | hERG current change (%, negative = inhibition) at 1uM [%] |
| --- | --- |
| O=C(c1cc(COc2cccc(C(F)(F)F)c2)on1)N1CCc2ccccc2C1 | 14.5 |
| COc1cc(OC)nc(NC(=O)CS(=O)(=O)c2ccccc2)n1 | -0.298 |
| COc1ccc(CCC(C)NCc2cccc(Br)c2)cc1 (stereo not drawn) | -32.1 |
| CCC(C)N(C(=O)COC(=O)COc1c(C)cc(C)cc1C)C1CCS(=O)(=O)C1 (stereo not drawn) | 10.6 |
| O=C(O)C1C2CCC(O2)C1C(=O)NCc1ccncc1 (stereo not drawn) | 12.5 |
| CCN1C(=O)[C@H]2[C@@H](c3ccc(C)cc3)N3C(=O)N(c4ccc(C(F)(F)F)cc4)C(=O)[C@@]3(CC)[C@H]2C1=O | 9.75 |
| Cn1cc(Cl)c(/C(N)=N/OC(=O)c2ccccc2C(F)(F)F)n1 | 8.48 |
| C=CCNC(=O)c1ccc2nc(-c3ccccc3)c(-c3ccccc3)nc2c1 | 0.892 |
| CCOC(=O)COc1c(OC)cc(Cl)cc1C1Nc2ccccc2C(=O)N1c1cccc(C)c1 (stereo not drawn) | 6.03 |
| CCc1ccc(CN2CCN(C(=O)Cc3ccccc3)CC2)cc1.O=C(O)C(=O)O | 5.9 |
| COC(=O)c1ccc(COC(=O)CNC(=O)c2ccc(-c3ccccc3)cc2)cc1 | -7.46 |
| CC(C)C(=O)Nc1ccc(C(=O)NNC(=S)NC(=O)c2cccs2)cc1 | 9.5 |
| O=C(CN1C(=O)CCC1=O)NNc1ccc2ccccc2c1 | 4.69 |
| CCCc1nc(N2CCCC2)c(C#N)c2c1CCCC2 | 4.69 |
| CC(=O)OCc1c(C(F)(F)F)nn(C)c1Sc1ccccc1 | 4.81 |
| CCOc1ccc2nc(SCC(=O)NCc3ccc(S(N)(=O)=O)cc3)[nH]c2c1 | 31.1 |
| COc1ccc(-c2csc(NC(=O)CN3C(=O)C4CCCCC4C3=O)n2)c(OC)c1 (stereo not drawn) | 16.1 |
| CCn1c(Nc2ccccc2Cl)nc2ccccc21 | 9.51 |
| Cc1ccc(C(=O)Nc2cccc(NC(=O)c3ccc(C)o3)n2)o1 | -1.68 |
| O=C(Nc1ccc(C(=O)c2ccc(C(=O)O)c(C(=O)O)c2)cc1)c1ccccc1 | 16.3 |
| CCCCCNC(=O)C(C)NS(=O)(=O)c1ccc(OC)cc1 (stereo not drawn) | -12.5 |
| CCOC(=O)NC(=O)C(=CNc1ccccc1C)C(=O)NC(=O)OCC | -1.35 |

| SMILES | hERG current change (%, negative = inhibition) at 1uM [%] |
| --- | --- |
| CCc1cc2c(=O)c(-c3cnn(-c4ccccc4)c3)c(C)oc2cc1OCC(=O)Nc1ccc(F)c(F)c1 | 16.2 |
| CC1CCCCN1C(=O)Cn1cc(C#N)c2ccccc21 (stereo not drawn) | 12 |
| O=C(C[n+]1ccccc1)N/N=C/c1ccco1.[Cl-] | 13.6 |
| O=[N+]([O-])c1ccccc1OCCN1CCOCC1 | 6.83 |
| COc1ccccc1C(=O)N/C(=C\c1ccc(Br)cc1)C(=O)NCCO | 8.07 |
| CCOc1ccc(N2CC(O)=C(c3ccccc3)C2=N)cc1 | 10.5 |
| CCOC(=O)Cc1c(C)nc(-c2ccccc2)[nH]c1=O | 4.47 |
| CCCC(=O)Nc1cccc(NC(=O)c2ccc3c(c2)OCCO3)c1 | 12.2 |
| Clc1cccc(OCCN2CCNCC2)c1.O=C(O)C(=O)O | 8.77 |
| COc1ccc(C(C[N+](=O)[O-])c2c(-c3ccccc3)cc3ccccn23)c(OC)c1 (stereo not drawn) | 0.268 |
| c1ccc(-c2nnc(-c3ccccc3)nn2)cc1 | 10.5 |
| CC1=C(C(=O)N(C)CCC#N)C2(CCCCC2)OC1=O | -0.549 |
| COCC(C)NC(=S)N1CCN(c2ccccc2Cl)CC1 (stereo not drawn) | 8.29 |
| Cc1cccc(OP(N)(=O)Oc2cccc(C)c2C)c1C | 8.32 |
| CC1(C)Cc2cccc(OCC(=O)NCc3cccs3)c2O1 | 8.47 |
| Cc1onc(-c2ccccc2Cl)c1C(=O)Nc1ccc(Cl)cn1 | 12.4 |
| COc1ccc2c(Cl)c(-c3nnc4n3CCCCC4)sc2c1 | -7.35 |
| CCc1ccc2[nH]c(=O)c(CN(Cc3ccccc3)C(=O)Nc3ccccc3OC)cc2c1 | 8.18 |
| Cc1nc2sccn2c(=O)c1S(=O)(=O)Nc1ccc(N2CCN(C)CC2)cc1 | 21.4 |
| Cc1cc(C)nc(-n2nc(C)cc2NC(=O)CN2CCCC(C)C2)n1 (stereo not drawn) | -12.1 |
| CN(c1ccc(OCC(=O)NCc2cccnc2)cc1)S(=O)(=O)c1ccc(Cl)cc1 | -4.28 |
